Values joined by “and” are separate entries in the source; they are usually repeats but may differ in a detail not shown here. Equal entries are not always repeated. The campaign covered roughly 420,000 compounds. About 64,000 (15%) were called active. Inconclusive means that the source gave no clear call. Such entries were picked first, then a sample of the others. Calls follow the shape of the dose curve; as a rule, active = well fitted inhibition curve with a large enough effect; inconclusive = small, poorly fitted or top-dose-only effect; inactive = flat fitted curve, though single readings scatter. No potency is given beside an inconclusive call; the fits are too rough.
Test: qHTS for Inhibitors of human tyrosyl-DNA phosphodiesterase 1 (TDP1): qHTS in cells in absence of CPT; also: nearly all actives have a fitted effect of over 55% in size
Details: DT40 Tdp1-/- hTDP1 cells, no CPT, ATP luminescence, 48 h; activity change, negative = growth inhibition: at 46.2 µM (top of the series)
In short: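 Growth kinetics read by CellTiter-Glo luminescence after ≥48 hr at 37 °C. Cells: DT40 Tdp1-/- stably carrying human TDP1, 400 per well, compound exposure in the absence of CPT (DMSO vehicle).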
% is scaled to controls: 0 for no effect and ±100 for the full control effect; potency is read from the fitted curve at half-maximal effect; tags tell the direction and shape of the fitted curve.

SMILES	Potency	activity change, negative = growth inhibition
CCOC(=O)N/N=C/C(Cl)=C/c1ccccc1	inconclusive [inhibitor, single point]	–
Cc1nc(-c2ccccc2)sc1-c1nc(-c2cccnc2)ncc1S(=O)(=O)c1ccccc1	inconclusive [inhibitor, partial curve]	–
CC(C)NC(=O)C(c1ccc(F)cc1)N(C(=O)CCC(=O)Nc1ccccn1)c1cccc(F)c1 (stereo not drawn)	inactive	–
CCCOP(=O)(c1ccccc1)c1ccccc1	inconclusive [inhibitor, single point]	–
CC(C)c1nnc(NC(=O)CSc2nnc(NC(=O)c3c(F)cccc3F)s2)s1	inactive	–
O=C(COC(=O)c1ccc(Cl)nc1)c1ccc2c(c1)OCCO2	inactive	–
COc1ccc(NC(=O)C2CCN(S(=O)(=O)c3ccc(Cl)c(C(F)(F)F)c3)CC2)cn1	inconclusive [inhibitor, partial curve]	–
CCOc1ccc(N2C(=O)S/C(=C\c3cccn3C)C2=O)cc1	inconclusive [inhibitor, single point]	–
CC(=O)Oc1ccc2c(=O)c(-c3ccccc3)c(C)oc2c1	inconclusive [inhibitor, single point]	–
COc1ccc(COC(=O)c2[nH]c3c(c2C)C(=O)CC(c2ccc(OC)c(OC)c2)C3)cc1 (stereo not drawn)	active: 6.51 µM	–
C#CC(C)(CC)NC(=O)Cn1nnc(-c2ccc(OCc3ccccc3F)cc2)n1 (stereo not drawn)	inconclusive [inhibitor, partial curve]	–
Cc1ccc2nc(C3CCCCC3)[nH]c2c1	inconclusive [inhibitor, single point]	–
CCN(CC)c1ccc(NC(=O)COc2ccccc2C#N)cc1S(=O)(=O)Nc1ccccc1OC	active: 2.31 µM	–
c1ccc2c(N3CCCCCC3)nc(CN3CCCCC3c3nccs3)nc2c1 (stereo not drawn)	inconclusive [inhibitor, single point]	–
CN(C)NC(=S)NC(=O)C12CC3CC(CC(C3)C1)C2	active: 8.2 µM	–
CC1CCCC(C)N1C(=S)NCc1ccco1 (stereo not drawn)	inconclusive [inhibitor, single point]	–
COc1ccc(-n2nc([N+](=O)[O-])c(=NCCC3=CCCCC3)n2O)cc1	inconclusive [inhibitor, single point]	–
CCn1c(CSc2nncn2-c2ccc(OC)cc2)nc2cc(S(=O)(=O)N(C)C)ccc21	inactive	–
O=C(c1[nH]c(C(F)(F)F)nc1-c1ccccc1)N1CCc2c([nH]c3ccccc23)C1	active: 5.8 µM	–
COc1ccc(S(=O)(=O)Nc2ccccc2C(=O)N2CCCC2)cc1C	inactive	–
N=c1sccn1CC(=O)Nc1ccc2c(c1)CCC2	inconclusive [inhibitor, single point]	–
Cc1cc(NC(=O)CN2C(=O)NC(C)(CCc3ccccc3)C2=O)no1 (stereo not drawn)	inactive	–
CCCC(=O)NC(c1ccccc1OC)c1ccc2cccnc2c1O (stereo not drawn)	active: 4.11 µM	–
Cc1cccc2[nH]c3c(=O)n(CCN4CCNCC4)cnc3c12	inconclusive [inhibitor, single point]	–

SMILES	Potency	activity change, negative = growth inhibition
Cc1cccc(N2CCN(C(=O)CCC(=O)N3CC(C)Oc4ccccc43)CC2)c1C (stereo not drawn)	active: 13 µM	–
NC[C@@H]1O[C@H](C23CC4CC(CC(C4)C2)C3)Cc2c1ccc(O)c2O	active: 26.6 µM and active: 23.1 µM	–
O=c1nc(N/N=C/c2ccccn2)cn[nH]1	active: 5.17 µM	–
Cc1ccc(N2C(=O)C(O)(C(F)(F)F)C3=C2CC(C)(C)CC3=O)cc1 (stereo not drawn)	–	inconclusive: -30.1% [inhibitor]
O=C(C1=C(O)C(=O)N(CC2CCCO2)C1c1ccccc1)c1ccco1 (stereo not drawn)	inactive	–
CCC1S/C(=N/N=C/c2ccco2)N(Cc2ccccc2C)C1=O (stereo not drawn)	inconclusive [inhibitor, single point]	–
O=C(N/N=C\C=C\c1ccc(Br)cc1)c1ccc2c(c1)OCO2	inactive	–
O=C(c1ccncc1)N1CCC2(CC1)CCN(c1ccc(-c3ccccc3)cc1)CC2	inconclusive [inhibitor, partial curve]	–
COc1ccc(-c2cc(NC=O)c3ncc(-c4cccc(OC)c4)n3c2)cc1	active: 5.17 µM	–
Cn1c(/C(C#N)=C(\O)c2cccc(F)c2)nc2ccccc21	inconclusive [inhibitor, single point]	–
CC(=O)Nc1cccc(-c2ccnc3c2CC(C(=O)Nc2ccc(F)c(Cl)c2)O3)c1 (stereo not drawn)	active: 18.4 µM	–
Cc1onc(-c2ccccc2Cl)c1C(=O)N1CC(C)CC(C)C1 (stereo not drawn)	active: 10.3 µM	–
CCOc1cccc2sc(Nc3nc4ccc(NC(C)=O)cc4s3)nc12	inconclusive [inhibitor, single point]	–
CCOc1cc(C2c3c(-c4ccccc4)n[nH]c3C(=O)N2c2ccc(C(=O)O)cc2)ccc1O (stereo not drawn)	inactive	–
COc1ccc(NC(=O)Nc2cccc3cccnc23)cc1	inactive	–
COc1ccc(N2CCN(S(=O)(=O)c3cc4c(cc3C)NC(=O)CO4)CC2)cc1	inactive	–
CCOc1cc(/C=C2/C(=O)ON=C2C)ccc1OCc1ccccc1F	inconclusive [inhibitor, single point]	–
CCOC(=O)CNS(=O)(=O)c1ccc(S(=O)(=O)NC2CC2)cc1	inactive	–
CCCS(=O)(=O)NCc1c(C)ncc2c1CCN(C(=O)/C=C/c1cccc(Cl)c1)C2	inactive	–
COc1ccc(OC)c2c(N3CC(C)OC(C)C3)cc(C(F)(F)F)nc12 (stereo not drawn)	inconclusive [inhibitor, single point]	–
Cc1ccc(C(=O)NC(=S)NCC2CCCO2)cc1 (stereo not drawn)	inconclusive [inhibitor, partial curve, poor fit]	–
O=C(Nc1nccs1)c1nc(-c2ccccc2)n(-c2ccccc2)n1	inconclusive [inhibitor, single point]	–
CCNC(=O)C1CCCN(C(=O)c2ccc(OC)c(OC)c2)CC1 (stereo not drawn)	inactive	–
COc1ccc(OC)c(NC(=S)N(CCc2c(C)[nH]c3ccc(C)cc23)Cc2cccs2)c1	inconclusive [inhibitor, single point]	–

From PubChem BioAssay AID686978 (National Center for Advancing Translational Sciences (NCATS), 2013)
